Data reported in the supplement of paper PMC4466236.
The full ranking holds about 33,000 sequences; the median of “E-score (dimensionless, -0.5 to 0.5)” is about -0.058, and the highest 2% start at about 0.35. The list shows a part of the results.

System: MvaT
Experiment: PBM 8-mer E-score (mean of HK and ME arrays) (E-score (dimensionless, -0.5 to 0.5)); higher = stronger relative binding preference; most listed sequences are background and not binding sites
In short: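 Full-length P. aeruginosa MvaT, with glutathione S-transferase fused to its N-terminus (cloned into pTH6838 by isothermal assembly), was tested by protein binding microarray using a previously described protocol. Two universal double-stranded 60-mer arrays (ME and HK) were used, each with a constant 25-mer primer region and a variable 35-mer region covering all 8-mers. The rank-based 8-mer E-score (-0.5 to 0.5) is the mean of the two arrays, parsed with a custom Python script.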

Row | Sequence | PBM 8-mer E-score
1 | AGCGAATA | 0.118
2 | TCAATGCA | 0.0828
3 | CTGATGTA | 0.00103
4 | CGCACTGC | 0.0373
5 | AAATTTAC | 0.11
6 | GAAAAACC | 0.0673
7 | CTCGGTGC | -0.135
8 | AGCTCAGC | -0.254
9 | AACCATCG | -0.124
10 | ACGCAGGG | -0.289
11 | AAGCGGGG | -0.0499
12 | CGTTTAAG | 0.0815
13 | TACGCCGA | -0.161
14 | CACAGCTG | -0.0633
15 | CTCACGGC | -0.215
16 | ATTGTACC | 0.171
17 | GGTACCGA | -0.173
18 | CAGTTAGG | 0.0169
19 | AGTCTTAG | 0.0244
20 | AAATAGGG | 0.0471
21 | GGCACTTA | 0.0393
22 | CGGGGGCA | -0.297

Row | Sequence | PBM 8-mer E-score
23 | CAACCAAG | -0.139
24 | CTCGAAAA | -0.0277
25 | CAAAAACG | -0.0419
26 | CAGACCCC | -0.251
27 | ACCTCTGG | -0.221
28 | AAACCCTA | -0.0164
29 | AGTAACAG | 0.018
30 | GACGAATC | -0.225
31 | AGATACCC | -0.0322
32 | CGCTCATA | -0.0347
33 | AAGCCCGG | -0.292
34 | ACATGAGC | 8.08e-05
35 | GAACGATA | -0.00908
36 | GGATCACA | -0.107
37 | TAGAGAGA | 0.00267
38 | CCCCAGGG | -0.277
39 | ACAAATCA | 0.223
40 | AGAGATGG | -0.141
41 | GTGATAAC | 0.209
42 | ATGCCCAC | -0.0414
43 | CGGTTCTA | -0.18
44 | CTCCAACC | -0.16

Row | Sequence | PBM 8-mer E-score
45 | CACCGCCA | -0.154
46 | GCGTCGCC | -0.203
47 | CAATTGCC | 0.0531
48 | AGTTCGAG | 0.11
49 | AAATTCAC | 0.0554
50 | AACGTCAC | -0.00265
51 | GGGCGCAA | -0.235
52 | GGATTATA | 0.32
53 | GATAAATA | 0.382
54 | GGCTAAAC | -0.00468
55 | TGGTTGAA | -0.0872
56 | CACCGAAG | -0.124
57 | ATGATCCC | -0.0502
58 | ACGGGGAG | -0.241
59 | CGTAACAG | -0.0868
60 | ATTCAAAG | 0.102
61 | CGCGGGTC | -0.255
62 | CGCAAGGC | -0.213
63 | ATCCTACA | -0.118
64 | CGGAGCAC | -0.212
65 | ATCATGCG | -0.0902
66 | AACTCCGC | 0.0258

Row | Sequence | PBM 8-mer E-score
67 | CAGACCTA | -0.191
68 | CAACGACA | -0.0648
69 | CCTTAGTA | 0.0202
70 | AGTCTGGG | -0.0379
71 | AACACGGC | -0.0354
72 | AACTCTTG | 0.017
73 | AGCAATGC | -0.145
74 | AGTCGATA | -0.0709
75 | AGATGGGA | 0.0236
76 | AGACAGAT | 0.0471
77 | ATAAGGCC | 0.083
78 | GATCAAAA | 0.0613
79 | AAACGAAG | 0.0779
80 | CGACGTTC | -0.218
81 | CTCTGCAA | -0.167
82 | ATTCCTAA | 0.0582
83 | TGTCATAA | 0.173
84 | GCGACTCC | -0.217
85 | GTAAAAAA | 0.137
86 | TGGCTAAA | 0.0382
